The values that follow come from PubChem BioAssay (Tox21).

SMILES strings stand for the structures. Results filed as inconclusive are left out. The call rests on the fitted dose curve; in most records, active means well fitted curve in the direction sought with a large enough effect in the repeat runs; inconclusive means weak or mixed curves; inactive means no such curve, though single readings can be large; an effect the other way counts as inactive or inconclusive. A structure can be active in one record and inactive in another. For part of its entries the source gives two or more results. The other results are left out here. An entry can have further records. The records of an entry are repeats in other runs, samples, wells, individuals or studies. Brackets tell where a record comes from. The letters are not those of the source and start again with each entry.
Potency means the concentration at half of the fitted maximal effect.

The first test is described as follows: qHTS assay to identify small molecule antagonists of the androgen receptor (AR) signaling pathway using the MDA cell line - cell viability counter screen (AID 743041; further: nearly all actives have a fitted effect of over 45% in size). The conditions noted are these: MDA-kb2 viability, CellTiter-Fluor, 16 h, cells co-treated with R1881 androgen agonist; series mostly up to 70.3 µM. Put shortly: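 In this qHTS counter assay, fluorescence intensity after CellTiter-Fluor addition indicated viability of MDA-kb2 AR-luc cells given compounds and R1881 for 16 h at 37C.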
Background: qHTS replaces the single test concentration by a dilution series.
For `N#Cc1nn(-c2c(Cl)cc(C(F)(F)F)cc2Cl)c(N)c1S(=O)C(F)(F)F` (stereo not drawn), the Potency result is “inactive [sample A] and active: 61.5 µM [sample B]”.
Same read-out and setting: then `CCOP(=O)(O)OCC` (tested in a mixture with another compound), with “inactive [sample A] and active: 54 µM [sample B]”.
Same read-out and setting: then `Cn1c(-c2ccccc2)cc(-c2ccccc2)[n+]1C`, with “inactive [sample A] and active: 19.3 µM [sample B]”.

The nature of the next test: qHTS assay to identify small molecule antagonists of the thyroid receptor (TR) signaling pathway (AID 743065). Further: nearly all actives have a fitted effect of over 55% in size. The conditions noted are these: GH3.TRE-Luc, T3-stimulated luciferase inhibition, 23.5 h; series mostly up to 70.3 µM. Put shortly:
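GH3.TRE-Luc rat pituitary cells carrying two TR response elements driving luciferase were plated for 4 h, given compound plus 1 nM T3 (final), and incubated 23.5 h at 37 C. ONE-Glo luminescence measured reporter inhibition; CellTiter-Fluor fluorescence tracked cytotoxicity.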
For the molecule `COP(=S)(OC)Oc1ccc(S(=O)(=O)N(C)C)cc1`, the Potency entry was “inactive [sample A] and active: 68.6 µM [sample B]”.
Same read-out and setting: then `CCOP(=O)(O)OCC` (tested in a mixture with another compound), with “inactive [sample A] and active: 3.41 µM [sample B]”.
Same read-out and setting: the value for `O=C(O)c1nn(Cc2ccc(Cl)cc2Cl)c2ccccc12` was “inactive [sample A] and active: 48.2 µM [sample B]”.
For the molecule `CC(C)=CC1C(C(=O)OCN2C(=O)C3=C(CCCC3)C2=O)C1(C)C` (stereo not drawn), the Potency entry is “inactive [sample A] and active: 61.1 µM [sample B]”.
For the molecule `Cc1ccc(N=CN(C)C=Nc2ccc(C)cc2C)c(C)c1`, the Potency entry is “inactive [sample A] and active: 61.4 µM [sample B] and active: 48.5 µM [sample C]”.
